Experimental findings from the antibiotic and cytotoxicity screens of Wong et al. (2023) are described below.

In assay [1] the test system is HSkMC (human skeletal muscle cells). Briefly: cytotoxicity call (relative viability < 0.9). As to conditions: 10 µM.
Assay [2] has as its system HepG2. Briefly: cytotoxicity call (relative viability < 0.9). As to conditions: 10 µM.
Assay [3] relates to S. aureus RN4220. Briefly: growth inhibition call (relative growth <= 0.2). The note with it: 50 µM.

The other results are listed elsewhere or left out.

`C[C@H]1CN([C@@H](C)CO)C(=O)c2c(c3ccccc3n2C)-c2ccccc2CO[C@@H]1CN(C)C(=O)Nc1ccccc1C(F)(F)F`: the cytotoxicity call in assay [1] and in assay [2] was “inactive” each time. Besides, in assay [3], the growth inhibition call was “inactive”.
`CCOC(=O)C1CCNCC1`: the cytotoxicity call in assay [1] and in assay [2] was “inactive” each time. Also, the growth inhibition call in assay [3] is “inactive”.
Turning to `Cc1ccc(S(=O)(=O)Nc2ccc3c(c2)C(=O)N([C@H](C)CO)C[C@H](C)[C@H](CN(C)S(=O)(=O)c2ccc(Cl)cc2)OCCCC[C@@H](C)O3)cc1`, the cytotoxicity call in assay [1] and in assay [2] was “inactive” in each case. The growth inhibition call in assay [3] is “inactive”.
Take `CC(C)NC(=O)Nc1ccc2c(c1)C(=O)N([C@@H](C)CO)C[C@H](C)[C@@H](CN(C)S(C)(=O)=O)OCCCC[C@@H](C)O2`: the cytotoxicity call in assay [1] and in assay [2] was “inactive” each time. In addition, the growth inhibition call in assay [3] is “inactive”.
As to `COCC(=O)N1C[C@@H](C)[C@@H](OC)CN(C)C(=O)c2ccc(NC(=O)c3cc(C)on3)cc2OC[C@@H]1C`, the cytotoxicity call in assay [1] and in assay [2] was “inactive” in each case. The growth inhibition call in assay [3] is “inactive”.
`COC(=O)C12CC3(C(=O)OC)CC(C(=O)OC)(CC(C(=O)OC)(C1)C3=O)C2=O`: the cytotoxicity call in assay [1] and in assay [2] was “inactive” each time. Further, the growth inhibition call in assay [3] was “inactive”.
As for `C=CC[C@@H](CC(=O)N[C@H](CO)Cc1ccccc1)C(=O)NCCOC(=O)[C@H](CC=C)CC(=O)OC(C)(C)C`, the cytotoxicity call in assay [1] and in assay [2] was “inactive” throughout. The growth inhibition call in assay [3] was “inactive”.
For `COCCOC(=O)N1C(=O)[C@@]2(c3cc(C#CCCO)ccc31)[C@H](C(=O)NC[C@H](O)c1ccccc1)[C@H]1C(=O)O[C@H](c3ccccc3)[C@H](c3ccccc3)N1[C@@H]2c1ccccc1OCCO`, the cytotoxicity call in assay [1] and in assay [2] was “inactive” in each case. In assay [3], the growth inhibition call was “inactive”.
For the compound `Cc1[nH]c(=O)[nH]c(=O)c1S(=O)(=O)N1CCC(C(=O)N[C@H](C)c2ccccc2)CC1`, the cytotoxicity call in assay [1] and in assay [2] was “inactive” in each case. The growth inhibition call in assay [3] is “inactive”.
In the case of `CO[C@@H](CN(C)S(=O)(=O)c1ccc(C)cc1)[C@H](C)CN([C@@H](C)CO)S(=O)(=O)c1cccc(Cl)c1`, the cytotoxicity call in assay [1] and in assay [2] was “inactive” each time. The growth inhibition call in assay [3] was “inactive”.
Take `C[C@@H]1CN([C@@H](C)CO)C(=O)Cc2cc(NC(=O)CCC(F)(F)F)ccc2O[C@H]1CN(C)Cc1ccc(Cl)c(Cl)c1`: the cytotoxicity call in assay [1] and in assay [2] was “active” in each case. Moreover, the growth inhibition call in assay [3] was “inactive”.
As to `C[C@@H]1CCCCO[C@@H](CN(C)Cc2ccc(C(F)(F)F)cc2)[C@H](C)CN([C@H](C)CO)C(=O)c2cc(NS(=O)(=O)c3ccccc3)ccc2O1`, the cytotoxicity call in assay [1] and in assay [2] was “inactive” throughout. The growth inhibition call in assay [3] is “inactive”.
`C[C@@H]1CN([C@H](C)CO)C(=O)c2cc(NS(=O)(=O)c3cccs3)ccc2O[C@@H]1CN(C)S(=O)(=O)c1ccc(F)cc1`: the cytotoxicity call in assay [1] and in assay [2] was “inactive” each time. The growth inhibition call in assay [3] was “inactive”.
As for `CCCNC(=O)N[C@H]1CC[C@@H](CC(=O)N2CCN(C)CC2)O[C@H]1CO`, the cytotoxicity call in assay [1] and in assay [2] was “inactive” throughout. The growth inhibition call in assay [3] is “inactive”.
In the case of `CN1[C@@H]2c3ccc(-c4ccccc4)c(=O)n3C[C@H]1[C@H](CO)[C@H]2C(=O)NCCCN1CCOCC1`, the cytotoxicity call in assay [1] and in assay [2] was “inactive” in each case. The growth inhibition call in assay [3] was “inactive”.
Turning to `CC(=O)N1C[C@@H](O)C[C@H]1C(=O)O`, the cytotoxicity call in assay [1] and in assay [2] was “inactive” in each case. For the same compound, the growth inhibition call in assay [3] is “inactive”.
In the case of `Cc1ccnn1-c1ccc(CN)cc1`, the cytotoxicity call in assay [1] and in assay [2] was “inactive” in each case. The growth inhibition call in assay [3] was “inactive”.
Consider `COc1ccc(CNC(=O)C[C@H]2CC[C@@H]3[C@@H](COc4ccc(NC(=O)C(C)C)cc4C(=O)N3C)O2)cc1`, for which the cytotoxicity call in assay [1] and in assay [2] was “inactive” each time. In assay [3], the growth inhibition call is “inactive”.
In the case of `C[C@@H](N)C(=O)OC(C)(C)Cc1ccc(Cl)cc1`, the cytotoxicity call in assay [1] and in assay [2] was “inactive” in each case. In addition, the growth inhibition call in assay [3] was “inactive”.
`COc1cccc(S(=O)(=O)N[C@@H]2CC[C@H](CCn3cc(-c4ccccc4OC)nn3)O[C@@H]2CO)c1`: the cytotoxicity call in assay [1] and in assay [2] was “inactive” each time. The growth inhibition call in assay [3] is “inactive”.
`COc1ccc(S(=O)(=O)Nc2ccc3c(c2)C(=O)N([C@H](C)CO)C[C@H](C)[C@H](CN(C)Cc2ccncc2)O3)cc1`: the cytotoxicity call in assay [1] and in assay [2] was “inactive” each time. In addition, the growth inhibition call in assay [3] was “inactive”.
`C[C@H](CO)N1C[C@H](C)[C@@H](CN(C)Cc2ccc3c(c2)OCO3)Oc2ccc(NC(=O)C3CC3)cc2C1=O`: the cytotoxicity call in assay [1] and in assay [2] was “inactive” throughout. In addition, the growth inhibition call in assay [3] was “inactive”.
On to `Nc1ccc(S(=O)(=O)Nc2ccccn2)cc1`, for which the cytotoxicity call in assay [1] and in assay [2] was “inactive” throughout. The growth inhibition call in assay [3] was “inactive”.
Consider `Cc1noc(C)c1S(=O)(=O)N(C)C[C@H]1Oc2ccc(NS(=O)(=O)c3ccc(Cl)cc3)cc2C(=O)N([C@H](C)CO)C[C@H]1C`, for which the cytotoxicity call in assay [1] and in assay [2] was “inactive” throughout. Also, the growth inhibition call in assay [3] is “inactive”.
For the compound `COCC#Cc1ccc2c(c1)O[C@H](CN(C)Cc1ccccc1F)[C@H](C)CN([C@H](C)CO)S2(=O)=O`, the cytotoxicity call in assay [1] and in assay [2] was “inactive” in each case. For the same compound, in assay [3], the growth inhibition call is “inactive”.
For `CC(=O)NCCCCCC(=O)O`, the cytotoxicity call in assay [1] and in assay [2] was “inactive” each time. The growth inhibition call in assay [3] is “inactive”.
For the compound `C[C@@H]1CN([C@H](C)CO)C(=O)c2cc(NC(=O)Nc3ccc(F)cc3)ccc2O[C@@H](C)CCCCO[C@@H]1CN(C)CC1CCCCC1`, the cytotoxicity call in assay [1] and in assay [2] was “active” each time. Moreover, the growth inhibition call in assay [3] was “inactive”.
